Experimental data as given in US10695333B2 (NOVARTIS AG, priority 2017, dated 2020).

System: D538G ER mutant MCF-7 xenograft
Assay: D538G ER mutant MCF-7 breast cancer model in NSG mice
Type: in vivo, mouse
Conditions: for Tumor response Regression / Tumor response ΔT/ΔC: Day 74; for Tumor response in words: LSZ102 80 mg/kg daily, fulvestrant 5 mg/mouse weekly

SMILES | Tumor response Regression (5 mg/mouse SC QWeek) [%] | Tumor response ΔT/ΔC (5 mg/mouse SC QWeek) [%] | Tumor response in words | Tumor response Regression (80 mg/kg QD PO) [%] | Tumor response ΔT/ΔC (80 mg/kg QD PO) [%]
C[C@]12CC[C@@H]3c4ccc(O)cc4C[C@@H](CCCCCCCCC[S+]([O-])CCCC(F)(F)C(F)(F)F)[C@H]3[C@@H]1CC[C@@H]2O (stereo partly drawn) [Fulvestrant, reference compound] | 28.1 | −66.5 | also active |  | 
CC(F)(F)c1cc(F)ccc1-c1sc2cc(O)ccc2c1Oc1ccc(/C=C/C(=O)O)cc1 [LSZ102, (E)-3-(4-((2-(2-(1,1-difluoroethyl)-4-fluorophenyl)-6-hydroxybenzo[b]thiophen-3-yl)oxy)phenyl)acrylic acid] |  |  | regressed the D538G ER expressing MCF-7 xenografts | 37.7 | −89.3
